PubChem BioAssay (NCATS)
The inconclusive results got no clear call from the source; some entries with a clear call stand among them for comparison. Potencies of inconclusive entries are left out as doubtful fits. Calls of active or inactive are those of the source. The call rests on the fitted dose curve; in most records, active means well fitted inhibition curve with a large enough effect; inconclusive means small, poorly fitted or top-dose-only effect; inactive means flat fitted curve, though single readings scatter.

These compounds were tested against Dual specificity protein kinase CLK4 (Homo sapiens) (UniProt Q9HAZ1) (assay: qHTS Assay for Inhibitors of CDC-like Kinase 4 (ADP-Glo Assay) (AID 1771; further: nearly all actives have a fitted effect of over 70% in size)). Conditions: recombinant CLK4, ADP-Glo luminescence; series mostly up to 80 µM.
Sequence of UniProt Q9HAZ1 (Q9HAZ1 whole entry, looked up): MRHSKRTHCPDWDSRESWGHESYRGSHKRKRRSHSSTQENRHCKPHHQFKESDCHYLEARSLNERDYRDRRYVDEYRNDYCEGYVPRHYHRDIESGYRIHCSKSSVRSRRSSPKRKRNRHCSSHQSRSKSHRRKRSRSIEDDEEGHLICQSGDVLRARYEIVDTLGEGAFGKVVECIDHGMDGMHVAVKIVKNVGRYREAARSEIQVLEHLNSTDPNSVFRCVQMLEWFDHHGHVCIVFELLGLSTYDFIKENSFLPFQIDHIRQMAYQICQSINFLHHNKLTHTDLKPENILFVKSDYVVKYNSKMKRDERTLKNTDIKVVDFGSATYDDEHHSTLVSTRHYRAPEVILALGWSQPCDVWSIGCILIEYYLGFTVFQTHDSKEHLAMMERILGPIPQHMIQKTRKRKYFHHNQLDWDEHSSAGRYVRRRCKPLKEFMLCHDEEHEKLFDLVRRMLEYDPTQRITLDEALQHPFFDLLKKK
Experimental: NIH Molecular Libraries Probe Production Centers Network [MLPCN] NIH Chemical Genomics Center [NCGC] MLPCN Grant: 1R03MH084827-01 Assay Submitter (PI): Tom Misteli NCGC Assay Overview: Clk4 (Invitrogen, cat# PV3839) was assayed using ATP and the RS repeat peptide (AnaSpec cat # 61722) as substrates. In the assay, the ADP levels were detected using Promega ADP-Glo technology wherein the remaining ATP from the kinase reaction is first depleted with an ATPase reagent followed by a reagent that contains and enzyme which converts the ADP produced to ATP as well as Ultra-Glo luciferase and D-luciferin which generates a bioluminescence signal from the ATP. The positive control for the assay was TG003 (Sigma-Aldrich, cat# 300801-52-9) which has been described as an inhibitor of Clk 4[1].
NCGC Assay Protocol Summary: Two uL/well of substrate-buffer solution (100 uM RS peptide, 1 uM ATP, 1x ADP-Glo Buffer A, 2 mM MgCl2, 0.5 mM EGTA, 2.5 mM DTT, 0.01% Triton X-100, final concentrations) was dispensed into 1536-well plates (Greiner, solid white, medium binding assay plates) with the Aurora Discovery BioRAPTR Flying Reagent Dispenser (FRD; Beckton-Dickenson). Twenty-three nanoliter of compound and control solutions were transferred to the assay plate using a Kalypsys pin-tool followed by 0.5 uL/well Clk4-buffer solution (25 nM Clk4, 1x ADP-Glo Buffer A, 2 mM MgCl2, 0.5 mM EGTA, 2.5 mM DTT, 0.01% Triton X-100 final concentration) dispensing for a total kinase reaction volume of 2.5 uL/ well. After 1 hr of room-temperature incubation, 2.5 uL ADP-Glo reagent was added and incubated at room temperature for 45 min to stop the kinetic reaction and degrade residual ATP. The ADP product was then converted to ATP by adding 5 uL per well of ADP-Glo Reagent II to yield a total assay volume of 10 uL/ well. Luminescence was detected after 30 min room temperature incubation with the Perkin Elmer Viewlux.
Potency means the concentration at half of the fitted maximal effect; tags describe the fitted curve by direction and shape.

SMILES | Potency
CC(=O)NCCNc1ncnc2ccc(-c3cccc(NS(C)(=O)=O)c3)cc12 | active: 12.6 µM
Cc1cnc(CNc2ncnc3ccc(-c4ccccc4C(F)(F)F)cc23)cn1 | inconclusive [falling, single point]
CCNc1ncc2nc(CCc3ccccc3)c(=O)n(C3CC3)c2n1 | inconclusive [falling, single point]
O=c1c(-c2cc(F)cc(F)c2)nc2cnc(N3CCNCC3)nc2n1-c1ccccc1 | active: 22.4 µM
O=c1c(-c2cccs2)nc2cnc(N3CCNCC3)nc2n1CCc1ccccc1 | inconclusive [falling, partial curve]
COc1cccc(Cn2c(=O)cnc3cnc(N(C)C)nc32)c1 | inconclusive [falling, single point]
COc1ccc(-n2c(=O)c(CCc3ccccc3)nc3cncnc32)cc1 | inactive
COc1ccc(-c2nc3cnc(N4CCNCC4)nc3n(-c3ccc(OC)cc3)c2=O)cc1 | inactive
COc1ccc(-c2nc3cnc(N4CCOCC4)nc3n(Cc3cccc(OC)c3)c2=O)cc1 | inactive
COc1cccc(Cn2c(=O)c(-c3cc(F)cc(F)c3)nc3cnc(N(C)C)nc32)c1 | inactive
COc1ccc2[nH]cc(CCNc3ccnc(-c4ccccc4C(F)(F)F)n3)c2c1 | inconclusive [falling, partial curve]
FC(F)(F)c1ccccc1-c1ccc2ncnc(NCCN3CCOCC3)c2c1 | inconclusive [falling, single point]
COc1ccccc1CNc1nc(-c2ccc(C(=O)N(C)C)cc2)nc2ccccc12 | inconclusive [falling, single point]
N#Cc1cccc(-c2ccc3ncnc(NCc4cccs4)c3c2)c1 | active: 8.91 µM
c1ccc(CNc2cc(-c3ccoc3)ncn2)cc1 | inconclusive [falling, partial curve]
Cc1nc2cnc(Oc3cccc(Cl)c3)nc2n(C2CC2)c1=O | inactive
COc1ccc(-c2nc3cnc(N4CCN(C)CC4)nc3n(CCc3ccccc3)c2=O)cc1 | inactive
CCNc1ncc2nc(-c3cccs3)c(=O)n(CCC#N)c2n1 | inconclusive [falling, partial curve]
O=c1cnc2cnc(N3CCNCC3)nc2n1Cc1ccc(F)cc1 | inactive
COc1ccc2[nH]cc(CCNc3ncnc4ccc(-c5ccccc5OC)cc34)c2c1 | active: 25.1 µM

SMILES | Potency
COCCNc1ncnc2ccc(-c3ccccc3C(F)(F)F)cc12 | active: 31.6 µM
COc1ccc(CNc2ncnc3ccc(-c4ccc(C(=O)N(C)C)cc4)cc23)c(OC)c1 | inconclusive [falling, single point]
FC(F)(F)c1ccccc1-c1nccc(N2CCNCC2)n1 | inactive
COc1ccccc1-c1nc(NCCc2cnc[nH]2)c2ccccc2n1 | inconclusive [falling, partial curve]
c1csc(CNc2ccnc(-c3ccoc3)n2)c1 | inconclusive [falling, single point]
O=c1cnc2cnc(N3CCOCC3)nc2n1Cc1cccs1 | inconclusive [falling, partial curve]
COc1ccccc1-c1cc(Nc2ccn[nH]2)ncn1 | inconclusive [falling, single point]
COc1ccccc1CNc1ncnc2ccc(-c3ccc(C(=O)N(C)C)cc3)cc12 | inconclusive [falling, single point]
c1cncc(CNc2cc(-c3ccoc3)ncn2)c1 | inconclusive [falling, single point]
Cc1ccccc1-c1cc(NCc2cccnc2)ncn1 | inconclusive [falling, single point]
Clc1ccccc1-c1nc(NC2CCNCC2)c2ccccc2n1 | active: 12.6 µM
CN1CCN(c2ncc3nc(-c4ccccc4)c(=O)n(C4CC4)c3n2)CC1 | inactive
COc1ccccc1-c1nc(NCc2cccnc2)c2ccccc2n1 | inactive
COc1ccc(CNc2ncnc3ccc(-c4ccoc4)cc23)c(OC)c1 | active: 1 µM
N#Cc1ccccc1-c1ccc2ncnc(NCc3cccnc3)c2c1 | active: 5.01 µM
CN1CCN(c2ncc3ncc(=O)n(CCc4ccccc4)c3n2)CC1 | active: 15.8 µM
CN(C)c1ncnc2ccc(-c3ccccc3C(F)(F)F)cc12 | inconclusive [falling, single point]
CN(C)C(=O)c1ccc(-c2nc(NC3CCNCC3)c3ccccc3n2)cc1 | inconclusive [falling, partial curve]
COc1ncc2nc(-c3cccs3)c(=O)n(CCC#N)c2n1 | inconclusive [falling, single point]
N#Cc1cccc(-c2cncnc2NCc2cccs2)c1 | inconclusive [falling, partial curve]
